Results published in PubChem BioAssay AID1963576 (National Center for Advancing Translational Sciences (NCATS), 2024).
The whole screen tested about 46,000 compounds, of which about 60 (0.1%) were called active. The inconclusive results got no clear call from the source; some entries with a clear call stand among them for comparison. Calls come from the whole dose curve; as a rule, active = well fitted inhibition curve with a large enough effect; inconclusive = small, poorly fitted or top-dose-only effect; inactive = no such curve, though single readings can be large or run the other way. A potency beside an inconclusive call is a rough fit, not a confirmed value.

assay: Primary qHTS assay for Inhibitors of ovarian cancer metastasis using an organotypic tumor microenvironment (TME) model.; note: nearly all actives have a fitted effect of over 65% in size;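 for potency: count of GFP cancer cells still attached after washing and fixation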; settings: SKOV3ip1-GFP adhesion/invasion on 3D omental model, fluorescence; activity change, negative = inhibition: at 45.8 µM (top of the series); series mostly up to 45.8 µM
Source text: PI: Ernst Lengyel MD., Ph.D. Department of Obstetrics and Gynecology, Section of Gynecologic Oncology University of Chicago Medicine, Chicago, Illinois. The tumor microenvironment (TME) is a key determinant of metastatic efficiency. We performed a quantitative high-throughput screen (qHTS) of diverse medicinal chemistry tractable scaffolds (44,420 compounds) and pharmacologically active small molecules (386 compounds) using a layered organotypic, robust assay representing the ovarian cancer metastatic TME. This 3D model contains primary human mesothelial cells, fibroblasts, and extracellular matrix, to which fluorescently labeled ovarian cancer cells are added. Initially, 100 compounds inhibiting ovarian cancer adhesion/invasion to the 3D model in a dose-dependent manner were identified. Of those, eight compounds were confirmed active in five high-grade serous ovarian cancer cell lines and were further validated in secondary in vitro and in vivo biological assays. […] Specifically, NCGC00117362 and PP-121 inhibited ovarian cancer adhesion, invasion, and proliferation, whereas milciclib inhibited ovarian cancer invasion and proliferation. […] To evaluate the clinical potential of NCGC00117362, structure - activity relationship studies were performed. […] The three compounds identified have promise as therapeutics for prevention and treatment of ovarian cancer metastasis.
PROTOCOL TABLE (as described by Inglese J, Shamu CE and Guy RK. 2007) SEQUENCE No. (e.g., 1, 2, 3, etc.); […] (e.g., Cells, Incubation, Reagent, etc.); VALUE; DESCRIPTION. 1; Cells; 4 uL; primary human omental fibroblast, black, clear bottom, low base, 1536-well Aurora assay plate. 2; Incubation; 48 hr; 37C. 3; Cells; 3 uL; 1,200 SKOV3ip1-GFP cells. 4; Compounds; 23nL; acoustic dispenser. 5; Incubation; 2 hr; room temperature. 6; Incubation; 16 hr; 37C. 7; Wash; 5 uL; 1x PBS. 8; Fixing; 5 uL; 4% paraformaldehyde (PFA). 9; Incubation; 15 min; room temperature 10; Wash, 5 uL; 1x PBS. 11; Detection; Fluorescence, excitation filter 488 nm, emission filter 509 nm. NOTES (numbers refer to Sequence numbers above) 1. For the 1,536-well format, 40 primary human omental fibroblasts and 400 mesothelial cells were seeded with 0.02 µg fibronectin and 0.02 µg collagen type I in 4 µL of growth media (2.3 mm2; Supplementary Fig. S1A). 2. Assay plates were incubated for 48 hours at 37 C. 3. After incubation, 1,200 SKOV3ip1-GFP were seeded in 3 µL of serum-free media (growth media minus FBS) on top of primary human omental cells. 4. Compounds or controls were added to each well immediately after the addition of the cancer cells. Compounds were screened in four doses (0.36-46 µmol/L), and the plates contained the positive control (Tomatine) in eight doses (0.035-75 µmol/L) and DMSO (equal volume controls) 5 - 6. The plates were incubated at room temperature for 2 hours and then at 37 degrees C for 16 hours. 7 - 10. Following incubation, the media were aspirated and each well washed with PBS (5 µL) and then fixed with 4% paraformaldehyde (PFA; 5 µL). After 15 minutes, the PFA solution was aspirated, PBS (5 µL) was added. 11. The number of GFP-labeled cells analyzed using a fluorescent cytometer TTP LabTech Acumen eX3 using 488 nm excitation filter and 509 nm emission filter. Data was normalized to the DMSO treated for negative and Tomatine treated wells for positive control. REFERENCES: Inglese J, Shamu CE and Guy RK, Reporting data from high throughput screening of small molecule libraries, Nature Chemical Biology, 2007, 3(8): 438-441. doi.org/10.1038/nchembio0807-438. Yasgar A, Shinn P, Jadhav A, Auld DS, Michael S, Zheng W, Austin CP, Inglese J and Simeonov A, Compound Management for Quantitative High-Throughput Screening. J. Assoc. Lab. Auto., 2008, 13: 79-89. doi: 10.1016/j.jala.2007.12.004.
Potency is the fitted concentration of half-maximal effect; tags give direction and shape of the fitted curve.

Potency, inconclusive:
CCN(CC)CCCNC(=O)c1ccc2c(Cl)c3c(nc2c1)CCCC3 35.5 µM [inhibitor, single point]
CCN(CC)c1ccc(-c2nc(-c3ccco3)no2)cc1[N+](=O)[O-] 14.1 µM [inhibitor, single point]
O=C(O)CCC1CCC(c2cc(F)ccc2F)(S(=O)(=O)c2ccc(Cl)cc2)CC1 (centres undefined) 23.5 µM [inhibitor, single point]
CC(C)N(Cc1ccccc1)C(=O)CN1C(=O)COc2ccc(S(=O)(=O)N3CCCCCC3)cc21 35.5 µM [inhibitor, single point]
Cc1cccc(CNC(=O)c2sc3ncnc(N(C)C4CCCCC4)c3c2C)c1 25.1 µM [inhibitor, single point]
Cc1ccc(-n2nc3c(N4CCC(C(=O)NCCc5ccccc5C)CC4)nnc(C)c3c2C)cc1 2.51 µM [inhibitor, partial curve, poor fit]
CC1=CC(=O)c2ccccc2C1=O 26.4 µM [inhibitor, single point]
COc1ccc(N(Cc2cccs2)C(=O)COc2ccc(C(C)C)cc2)cc1 35.5 µM [inhibitor, single point]
O=C(C1CCC(Cn2c(=O)c3sccc3n(Cc3cccc(F)c3)c2=O)CC1)N1CCCCC1 (centres undefined) 22.4 µM [inhibitor, single point]
CC(C)c1ccc(NC(=O)c2cc(S(=O)(=O)NCc3ccccc3Cl)ccc2F)cc1 35.5 µM [inhibitor, single point]
COc1ccc(S(=O)(=O)N(CC(=O)NCc2ccccc2)c2ccc(C)cc2)cc1OC 12.6 µM [inhibitor, single point]
CCN1c2ccccc2-c2nc(SCC(=O)NCc3ccc(Cl)cc3)ncc2S1(=O)=O 22.4 µM [inhibitor, single point]
COc1ccc(NC(=O)c2c(C)oc3ccc(O)c(CN4CCN(Cc5ccccc5)CC4)c23)cc1Cl 35.5 µM [inhibitor, single point]
Cc1ccc(O)c(-c2n[nH]c3c2C(c2ccc(F)cc2)N(Cc2ccco2)C3=O)c1 (centres undefined) 31.6 µM [inhibitor, single point]
Cc1cccc(Nc2nc(-c3ccncc3)cs2)c1 26.4 µM [inhibitor, single point]
CCC1CN(C(=O)N2CCC(C(=O)N3CCN(c4cc(C)ccc4C)CC3)CC2)c2ccccc2O1 (centres undefined) 35.5 µM [inhibitor, single point]
Cc1nn(-c2ccccc2)c2sc(C(=O)Nc3cccc(Br)c3)cc12 35.5 µM [inhibitor, single point]
CCOC(=O)c1c(C)oc2nc(C)nc(NCc3ccc(OC)cc3)c12 35.5 µM [inhibitor, single point]
Fc1ccc(Nc2c(-c3ccco3)nc3ccccn23)cc1 35.5 µM [inhibitor, single point]
O=c1c2oc3ccccc3c2ncn1Cc1ccc(Br)cc1 25.1 µM [inhibitor, single point]
CCOc1ccc(C(NC(=O)c2cc(OC)c(OC)c(OC)c2)c2cc(Cl)c3cccnc3c2O)cc1 (centres undefined) 15.8 µM [inhibitor, single point]
CCCCSc1nnc2c(n1)OC(c1ccc(C)s1)Nc1ccccc1-2 (centres undefined) 35.5 µM [inhibitor, single point]
Cc1ccc(C(=O)CC2(O)C(=O)N(Cc3ccccc3)c3ccc(Br)cc32)cc1 (centres undefined) 35.5 µM [inhibitor, single point]
Cc1ccc(-c2n[nH]c3c2C(c2cccs2)N(c2ccc(Cl)cc2)C3=O)cc1 (centres undefined) 35.5 µM [inhibitor, single point]
CC(C)CCNC(=O)c1ccc2c(c1)N(C)C(=O)c1ccccc1S2 35.5 µM [inhibitor, single point]
COc1ccc(Cl)cc1NC(=O)CCCS(=O)(=O)c1nc(-c2ccc(OC)c(OC)c2)cc(C(F)(F)F)n1 7.08 µM [inhibitor, partial curve, poor fit]
CCn1c2ccccc2c2cc(NC(=O)COc3cccc(C)c3)ccc21 25.1 µM [inhibitor, single point]
COc1cccc(-c2nc(CS(=O)(=O)CC(=O)Nc3c(C)cc(C)cc3C)c(C)o2)c1 5.62 µM [inhibitor, full curve, poor fit]
Cc1cccc(NC(=O)Cn2nnc(C(=O)Nc3ccccc3Br)c2N)c1C 7.08 µM [inhibitor, partial curve, poor fit]
N=c1n(CCN2CCCCC2)c2ccccc2n1CC(O)COc1ccc(Cl)cc1Cl (centres undefined) 2.82 µM [inhibitor, full curve, poor fit]
Cc1nc2sc(C(N)=O)c(N)c2c(-c2ccc(Br)cc2)c1C(=O)Nc1ccc(Cl)cc1 35.5 µM [inhibitor, single point]
Cc1ccc2occ(CC(=O)N(Cc3ccc(C(C)C)cc3)C3CCS(=O)(=O)C3)c2c1 (centres undefined) 8.91 µM [inhibitor, partial curve]
Cc1ccc(OCc2ccc(-c3nc(C#N)c(NCc4ccccc4Cl)o3)o2)cc1 35.5 µM [inhibitor, single point]
COc1ccc2nc(C)cc(Nc3ccc(Cl)c(Cl)c3)c2c1 35.5 µM [inhibitor, single point]
COC(=O)c1ccccc1NC(=O)c1ccc2nc(CCc3ccccc3)oc2c1 35.5 µM [inhibitor, partial curve, poor fit]
COc1ccc(-c2onc(C)c2C)cc1S(=O)(=O)NCC1CCN(Cc2cc(C)ccc2C)CC1 35.5 µM [inhibitor, single point]
CCN(CC)CCCNc1sc(S(=O)(=O)c2ccccc2)nc1S(=O)(=O)c1ccc(Cl)cc1 11.2 µM [inhibitor, partial curve, poor fit]
CCCC(=O)Nc1nnc(S(=O)(=O)N2CCCCCC2)s1 11.2 µM [inhibitor, partial curve, poor fit]
CCCn1c(CCC(=O)Nc2ccc(OCC)cc2)nc2cccnc21 35.5 µM [inhibitor, single point]
CCN(CC)S(=O)(=O)c1ccc2c(c1)N(CC(=O)N1CCN(c3ccccc3F)CC1)C(=O)CO2 28.2 µM [inhibitor, single point]
CC(C)(C)OC(=O)N1CCC(c2c(C(=O)NCCN3CCC(Cc4ccccc4)CC3)cnn2-c2ccccc2)CC1 31.6 µM [inhibitor, single point]
COc1ccc(-n2nc3c(N4CCCC(C(=O)NCCc5ccc(C)cc5)C4)nnc(C)c3c2C)cc1 (centres undefined) 35.5 µM [inhibitor, single point]
CN1C(=O)Cc2cc(S(=O)(=O)CCC(=O)N3CCN(c4ccccc4F)CC3)ccc21 6.31 µM [inhibitor, partial curve, poor fit]

Activity change, negative = inhibition, inactive:
CCOC(=O)N1CCc2c(sc3c2C(=O)NC(c2ccccc2F)N3)C1 (centres undefined) -21.5%
CCc1ccccc1Nc1ncnc2c1cnn2-c1ccc(Cl)cc1 -0.527%
CCN1CCOC(=O)C1CC(=O)Nc1ccc(C(C)=O)cc1 (centres undefined) 6.43%
Cc1ccc(C(=O)N(CCCN)[C@@H](c2nc3cc(Cl)ccc3c(=O)n2Cc2ccccc2)C(C)C)cc1 -22.2%
N#CC(=C(O)c1ccc(Cl)cc1Cl)c1nc2cc(Cl)ccc2c(=O)[nH]1 -7.46%
COc1ccc(CNC(=O)c2cn(-c3cccc(OC)c3)c(=O)c3ccccc23)cc1 0.0006%
COc1ccc(Nc2c3c(nc4nncn24)CCC3)cc1Cl -12.7%
COc1ccc(C=CC(=O)Nc2ccccc2C(=O)O)cc1OC -6.64%
Clc1ccc(-c2nnn3c2nc(NCc2ccc4c(c2)OCO4)c2ccccc23)cc1 17.5%
Fc1ccc(N2CCN(c3ncnc4c3nc3n4CCCC3)CC2)cc1 6.19%
Cn1c(=O)c(F)c(Nc2ccc(I)cc2F)c2c(=O)n(C[C@@H](O)CO)cnc21 1.63%
CCOc1ccc(CCNC(=O)c2ccc3c(c2)N(Cc2ccc(C)cc2)CCS3)cc1 0.998%
COc1cccc(-c2nnc(-c3ccccc3NC(=O)c3ccc(F)cc3F)o2)c1 1.31%
CC1CCc2c(sc(NC(=O)C3c4ccccc4Oc4ccccc43)c2C#N)C1 (centres undefined) 0.627%
COC(=O)NCC(c1cccnc1)N1CCN(c2ccc(F)cc2)CC1 (centres undefined) 2.56%

outcome, inactive:
COc1ccc(Cn2c(SCC(N)=O)nc3c(sc4ccccc43)c2=O)cc1
CC(=O)c1ccc(NS(=O)(=O)c2ccc(-c3cnc(C4CC4)o3)cc2)cc1
CC(C)C1C(=O)Nc2ccc(S(=O)(=O)NCCc3ccc(Cl)cc3)cc21 (centres undefined)
Cc1cccc(-n2ncc(C(=O)N3CCN(c4ccc(C)cc4C)CC3)c2C2CCN(C(=O)OC(C)(C)C)CC2)c1
Cc1cccc(CCNC(=O)c2c[nH]c3ccc(S(=O)(=O)Nc4ccccc4F)cc3c2=O)c1
O=C(NC1CCN(Cc2ccccc2)CC1)c1ccc(Cn2c(=O)c3ccccc3n(Cc3ccccc3)c2=O)cc1
